In the antibiotic and cytotoxicity screens of Wong et al. (2023):
This is one part of the list.

Tested on: S. aureus RN4220
Experiment: growth inhibition call (relative growth <= 0.2)
Details: 50 µM

Growth inhibition call, inactive:
OC[C@@H](O)[C@@H](O[C@@H]1O[C@H](CO)[C@@H](O)[C@H](O)[C@H]1O)[C@H](O)[C@@H](O)CO
Cc1noc(C)c1S(=O)(=O)Nc1ccc2c(c1)CC(=O)N([C@@H](C)CO)C[C@@H](C)[C@@H](CN(C)Cc1ccc(-c3ccccc3)cc1)O2
C[C@@H]1CN([C@H](C)CO)C(=O)c2cc(N(C)C)ccc2O[C@@H](C)CCCCO[C@H]1CN(C)C(=O)Nc1cccc2ccccc12
C[C@H]1CCCCO[C@H](CN(C)Cc2ccc(C(F)(F)F)cc2)[C@@H](C)CN([C@@H](C)CO)C(=O)c2cc(NS(=O)(=O)c3ccc(F)cc3)ccc2O1
O=C(c1ccccc1Cl)n1c2ccccc2c2ccccc21
Cc1noc(C)c1NC(=O)Nc1ccc2c(c1)C(=O)N([C@H](C)CO)C[C@H](C)[C@@H](CN(C)C(=O)Nc1ccc(C(F)(F)F)cc1)OCCCC[C@H](C)O2
CCN(CC)c1ccc2c(-c3ccc(S(=O)(=O)O)cc3S(=O)(=O)O)c3ccc(N(CC)CC)cc3[o+]c2c1
CC(C)NC(=O)Nc1ccc2c(c1)CC(=O)N([C@H](C)CO)C[C@@H](C)[C@H](CN(C)S(=O)(=O)c1cn(C)cn1)O2
O=C(C[C@@H]1CC[C@@H]2[C@H](COC[C@@H](O)CN2C(=O)c2cnccn2)O1)NCc1ccc(Oc2ccccc2)cc1
